Assay results from the supplement of paper PMC11417369.
Some of the results follow.

What follows are sequences tested on PF3D7_0420300 AP2 domain 1 (GST-tagged) (assay: gcPBM binding intensity (ln(normalized median fluorescence intensity)); higher = stronger DNA binding).
Method in brief: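 GST-tagged P. falciparum DNA-binding domains, expressed in E. coli (about 25 μg on average), were applied for 1 h to an Agilent 4 × 180k array of primer-extended double-stranded 36-bp intergenic genomic probes plus negative controls. The binding buffer was 1× PBS with 1% milk, 0.2 mg/ml BSA, 0.5% salmon testes DNA and 0.03% Triton X-100. Bound protein was detected with Alexa488 anti-GST antibody and scanned at 488 nm. Binding intensity is the highest Masliner-normalised natural-log median intensity across replicate spots of either probe orientation.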

| Sequence | gcPBM binding intensity (ln) |
| --- | --- |
| AGAAAAAAAAAAAAAAATAAAAAAATAAATAAATAA [GTGCAC_negctrl_site161] | 8.96 |
| TATGGGTTTATATAGGTGCAATATATGTATATATAA | 9.26 |
| TATACCACCCGATATACACACTTGTAGACATCTTTT [CACACA_site4268] | 9.48 |
| AGCAATATTTATTAAAGTACGTAAAAAAAATTCTCA [XGTACX_site6550] | 9.03 |
| AACCATTGGGAAAGGGTGCACATATATATATATATA | 9.25 |
| TATATAGTTTATATTTGTACATATAGACATTTATAA [XGTACX_site6414] | 9.04 |
| ACAAAACTCTTTAATTGTACAAATATAATATAAAAA [XGTACX_site5690] | 9.12 |
| CAAAGCATAGTATGATGTACAAATGTTCCTATAATA [XGTACX_site8642] | 9.24 |
| ATATATATATAATATTGTACATAGTAGACATCACAC [XGTACX_site4649] | 9.57 |
| TCTTATTATAAAAGGAGTACATCAATTAGATGTTCC [XGTACX_site8465] | 8.9 |
| TAAAATATGGAAATCACACATTTATTAAAATATATA [CACACA_site4623] | 9.13 |
| TATATATGTATAAGAGTGCATATGCATATATGTATA [GTGCAC_site9692] | 9.33 |
| TTATGTTTATACACTACACACATTATTCATAAAAAA [CACACA_site4637] | 9.38 |
| CATATACATTGTATATGTACATATATATATATATAT [XGTACX_site3772] | 9.26 |
| GATTATATATTAAAAAGTACTTTATAAATACTTCTA [XGTACX_site8992] | 8.94 |
| TGATGCAAAATATATACACACATATATATATATATA [CACACA_site3052] | 9.23 |
| AATAATATTAACACACGTACAAAAGCAAACAACCAA [XGTACX_site7410] | 10.1 |
| ATACATTCTAATACGTGTACATATATATATATATAT [XGTACX_site1881] | 9.36 |
| ATAAAACAAAAACACACACACATACACAAAAAAAAA [CACACA_site3848] | 10.2 |
| TTTATATTATTATATCTTATTAATTATTTATCATTT [TGCATGCA_negctrl_site73] | 9.24 |
| CATCTTAAATAAGAACGTACATTTTTTTTGATGAGA [XGTACX_site3462] | 8.9 |
| AAGACAAAACAAAGAAGTACATATATATATATATAT [XGTACX_site4067] | 9.07 |

| Sequence | gcPBM binding intensity (ln) |
| --- | --- |
| GGAGACTTTGTACAAACACACACATGAACACAATAT [CACACA_site8376] | 9.8 |
| TAATTTAAAAATGAACATATATATGTATGTAAATAT [TGCATGCA_negctrl_site135] | 9.31 |
| TCTTCACCACGTGGAAGTACATAAAAAGATACACAA [XGTACX_site4747] | 9.23 |
| ATGTATATATTTATGTGTACTTAAATTTTTTTTTGT [XGTACX_site8179] | 9.26 |
| TTTTAATATATAGAGTAACAAATTTGTCTATTAATA [CACACA_negctrl_site1495] | 8.98 |
| CTTTTTCGCATGAAAAGTACATGAAATATATTACAT [XGTACX_site8971] | 8.92 |
| ACATGCAACCATTCGGGTACAGAAATAAATATATAC [XGTACX_site4174] | 9.3 |
| AATAACTTTTTAAACACACACACATATAAATAAATA [CACACA_site6196] | 10 |
| GGTTATAACGCACATGCACACGTAAATAAATATTAT [CACACA_site9277] | 9.4 |
| TAAATTTTAATAAATACACACAAATTTTAATTCTAT [CACACA_site6039] | 9.22 |
| TTATAACATCTTAAATGTACAAATATGTGCTTATTT [XGTACX_site7285] | 9.15 |
| ATATTAAAATACAGTGCATGTTAAAAATATATTATA [TGCATGCA_site977] | 9.35 |
| TAAAAAAAAAACATCTGTACCAATTTTTATGTATAA [XGTACX_site5196] | 8.92 |
| AATAAAAGTTCACCTGTACACACATATATATATGTA [CACACA_site8500] | 9.62 |
| ATGTATTTATATACTTGTACGTAAGATGTATTATAT [XGTACX_site908] | 9.27 |
| TTAATTCGTACATACACACGCACATATATATATATA [CACACA_site1469] | 9.61 |
| AATAATAATAGAAACACACACACATCTTTAATAATA [CACACA_site4805] | 10 |
| ATATTTTTTTTCTACACACATACAAATATATATTAT [CACACA_site2359] | 9.66 |
| TAATATACTTAATACACACACGAATATTTATAAATA [CACACA_site6675] | 9.73 |
| AAACTCAACTTATATACACACAATCTTTTTTTTTTA [CACACA_site29] | 9.61 |
| CCCCTCGAAATAATTTGTACGAATATATTGTCTGTA [XGTACX_site8308] | 9.64 |
| GATTCATCTAAACACCGTACATATTATATATATATA [XGTACX_site6030] | 9.31 |
